# Test results reported in paper PMC4336329 (PLoS ONE, 2015).
# The campaign covered roughly 310,000 compounds. About 14,000 (4.5%) showed an effect of 50% or more. Effects have a minus sign here. The list shows a part of the results.
# Target: human ether-à-go-go-related gene (hERG) potassium channel (human, UniProt Q12809)
# Assay: primary screen, population patch clamp on CHO cells stably expressing hERG
# 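Also: peak tail current of the secondary pulse compared with the same well before compound.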
# Chain of human ether-à-go-go-related gene (hERG) potassium channel (Q12809 whole entry, looked up): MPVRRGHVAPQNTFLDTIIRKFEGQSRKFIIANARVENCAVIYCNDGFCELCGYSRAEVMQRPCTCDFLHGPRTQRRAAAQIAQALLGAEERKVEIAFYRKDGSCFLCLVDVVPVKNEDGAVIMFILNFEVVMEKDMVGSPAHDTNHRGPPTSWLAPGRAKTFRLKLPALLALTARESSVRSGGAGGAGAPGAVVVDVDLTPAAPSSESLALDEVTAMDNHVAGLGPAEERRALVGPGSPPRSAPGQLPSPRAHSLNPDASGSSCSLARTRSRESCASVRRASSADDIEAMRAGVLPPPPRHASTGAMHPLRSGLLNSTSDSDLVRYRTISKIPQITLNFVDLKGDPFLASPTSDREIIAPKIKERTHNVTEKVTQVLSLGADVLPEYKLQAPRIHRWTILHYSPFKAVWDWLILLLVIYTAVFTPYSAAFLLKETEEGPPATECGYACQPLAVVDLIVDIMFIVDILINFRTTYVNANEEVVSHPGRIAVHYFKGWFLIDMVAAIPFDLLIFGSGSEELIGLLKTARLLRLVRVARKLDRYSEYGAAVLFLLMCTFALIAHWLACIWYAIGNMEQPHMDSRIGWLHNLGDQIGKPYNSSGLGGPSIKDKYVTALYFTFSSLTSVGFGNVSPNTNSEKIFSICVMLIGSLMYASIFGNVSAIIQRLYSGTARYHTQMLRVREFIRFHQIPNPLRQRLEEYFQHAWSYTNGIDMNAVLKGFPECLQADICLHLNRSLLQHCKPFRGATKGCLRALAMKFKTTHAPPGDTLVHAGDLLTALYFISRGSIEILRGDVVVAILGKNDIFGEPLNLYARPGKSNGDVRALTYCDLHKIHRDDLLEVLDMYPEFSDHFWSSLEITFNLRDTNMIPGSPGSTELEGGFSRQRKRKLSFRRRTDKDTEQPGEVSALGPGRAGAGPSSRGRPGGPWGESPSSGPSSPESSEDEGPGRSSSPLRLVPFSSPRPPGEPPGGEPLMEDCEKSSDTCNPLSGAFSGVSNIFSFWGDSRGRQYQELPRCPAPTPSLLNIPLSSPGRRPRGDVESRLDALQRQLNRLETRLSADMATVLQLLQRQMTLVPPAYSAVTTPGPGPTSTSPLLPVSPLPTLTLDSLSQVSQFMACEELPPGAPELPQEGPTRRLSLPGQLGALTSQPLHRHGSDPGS
row,SMILES,"hERG current change (%, negative = inhibition) at 10uM [%]"
1,CC(C)CN(C(=O)COC(=O)c1cccc2ccccc12)c1c(N)n(Cc2ccccc2)c(=O)[nH]c1=O,6.01
2,CCCNC(=O)c1onc(CSc2ccncc2)c1C(=O)NCCC,-21.7
3,CC(=O)c1ccc(NC(=O)CO/N=C(\C)c2cccs2)cc1,-8.22
4,CCOC(=O)c1c(C)noc1-c1ccc(Br)o1,-4.9
5,CN(CC(=O)Nc1ccc(F)cc1)C(=O)COC(=O)c1ccccc1,-11.6
6,O=c1cc(C(F)(F)F)c2sc(N3CCCCC3)nc2[nH]1,20.1
7,CCCC(=O)OCC(=O)NCc1ccc(Cl)cc1,17.6
8,Cc1ccc(C(=O)Nc2cccc(C(=O)N3CCOCC3)c2)cc1,-8.21
9,CCCOP(=O)(OCCC)C(NC(=O)C(C)(C)C)c1ccccc1 (centres unmarked),8.73
10,O=c1[nH]c(SCc2ccc(F)cc2Cl)nc2ccccc12,22.3
11,CCN(CC)S(=O)(=O)c1ccc(NC(=O)CSc2nnc(-c3cccc(OC)c3)n2C)cc1,-17.6
12,COc1cc(/C=N/O)ccc1OCc1ccc(Cl)cc1,19.6
13,Cc1ccc(C(=O)COC(=O)CNC(=O)c2cccs2)cc1,-10.3
14,Cc1cc(C)nc(CCNC(=O)c2cc(COc3ccccc3)on2)n1,1.31
15,CCOC(=O)CC(=O)CSc1ccc2nnc(-c3ccccc3)n2n1,-71.7
16,COc1ccc(/C=C2\N=C(c3c(-c4ccccc4)noc3C)OC2=O)cc1OC,3.74
17,Cc1ccc(NC(=O)CSc2nnc(-c3cccnc3)n2CCN2CCCCC2)cc1,-69
18,COc1cc(C(=O)Nc2ccc(O)cc2C(=O)O)ccc1OC(C)=O,-4.06
19,Brc1ccc(C2NCCS2)cc1 (centres unmarked),11.6
20,Cc1nc2ccc([N+](=O)[O-])cc2c(=O)n1Cc1cccc(F)c1,-33.6
21,COc1ccc(S(=O)(=O)Nc2cc(Cl)ccc2OC)cc1,-3.27
22,CCCNC(=S)N1CCC(C(=O)c2ccc3c(c2)OCCO3)CC1,-28.9

row,SMILES,"hERG current change (%, negative = inhibition) at 10uM [%]"
1,Cc1nc(N2CCN(c3ccccc3)CC2)[nH]c(=O)c1CCC(C)C,19.1
2,CCOC(=O)C1=C(C)NC2=C(C(=O)CC(C)(C)C2)C1c1ccc2c(c1)CCCN2C (centres unmarked),-10.7
3,CCN1C(=O)c2cccc3c(S(=O)(=O)N(C(=O)c4cccnc4)c4ccc(OC)cc4)ccc1c23,-2.72
4,O=C(C1CC1)N1CCN(C(c2ccccc2)c2ccccc2)CC1,6.33
5,COc1cc2c3c(c1)C(C)=CC(C)(C)N3C(=O)C2=O,15.1
6,Cc1ccc(N2CSC3=C(C#N)C(c4cccs4)CC(=O)N3C2)cc1 (centres unmarked),11.2
7,Cc1ccc(NC(=O)Cn2c(CCC(=O)O)ccc2-c2cccs2)cc1,-2.61
8,CCOc1ccccc1NS(=O)(=O)N(C)C,-8.14
9,CC(=O)c1cccc(NC(=O)CSc2ncc(C(=O)Nc3ccccc3)c(=O)n2C)c1,-14.4
10,CCOC(=O)c1sc(NC(=O)CSc2nc(C)cc(C(F)(F)F)n2)c(C#N)c1C,4.26
11,COc1cc(/C=N/NC(=O)CSCc2ccc([N+](=O)[O-])cc2)cc(OC)c1OC,-26.6
12,CN(C)c1ccc2c3c(ccc(N(C)C)c13)COC2,-34.8
13,O=C1CC(SCc2nc3ccccc3[nH]2)C(=O)N1c1cccc(F)c1 (centres unmarked),4.27
14,COc1ccc(-c2cn(/N=C/c3ccc(Cl)cc3Cl)c(N)n2)cc1,-0.619
15,NC(=O)C1CCN(Cc2nc3cc(C(F)(F)F)ccc3c(=O)[nH]2)CC1,8.39
16,O=C(Nc1nccs1)c1ccc(Cl)nc1,17.9
17,C=CCNC(=O)c1ccc2c3n(nc2c1)-c1ccccc1CO3,-14.4
18,CCOC(=O)c1nc2nc(C)cc(=O)n2[nH]1,2.41
19,N#C/C(=C\c1cccnc1)C(=O)Nc1cccc(Cl)c1,0.0277
20,CC1=C(C(=O)Nc2ccccc2F)C(c2ccsc2)C2=C(CC(C)(C)CC2=O)N1 (centres unmarked),3.24
21,N#Cc1cn(CC(=O)NCc2cccnc2)c2ccccc12,-0.289
22,N#Cc1nc(Cc2ccccc2)oc1N1CCC(C(N)=O)CC1,-8.65

row,SMILES,"hERG current change (%, negative = inhibition) at 10uM [%]"
1,Cc1cc(C)nc(N2CCCC(C(=O)Nc3ccc4c(c3)OCO4)C2)n1 (centres unmarked),12.7
2,COc1ccc2[nH]c(=O)c(CN(C(=O)c3cccnc3)c3ccc(C)cc3)cc2c1,7.25
3,COc1ccccc1CN(Cc1ccco1)S(=O)(=O)c1ccc(-n2cnnn2)c(OC)c1,7.21
4,Cc1ccc2c(C)c(C(=O)N(C)CCC3CCCCO3)oc2c1C (centres unmarked),-33.9
5,CSc1nsc(SCC(=O)Nc2ccc(OC(C)=O)cc2)n1,4.1
6,COc1ccc2c(c1)CCc1c(C(=O)N3CCCc4ccccc43)noc1-2,5.68
7,CCOc1ccc(-c2c(C(=O)N/N=C/c3ccc(C)cc3)nnn2-c2nonc2N)cc1,-1.87
8,C/C(=N\NC(=O)Nc1ccccc1)c1ccccc1,9.14
9,Cc1c([N+](=O)[O-])c([N+](=O)[O-])nn1CC(=O)N1CCOCC1,23.2
10,CCC1CCC2(CC1)NC(=O)N(CC(=O)Nc1ccc(OC)c(Cl)c1)C2=O (centres unmarked),0.761
11,O=C(CSc1nnc(-c2ccncc2)o1)NC1CCCCC1,3.27
12,CCn1c(SCC(=O)Nc2nc(C)cs2)nnc1-c1cccnc1,-5.29
13,CCc1ccc(/C=C(\C)C(=O)c2c(C)cc(C)[nH]c2=O)cc1,-4.81
14,N#C/C(=C\Nc1ccc2c(c1)OCCO2)c1nc(-c2ccccc2)cs1,23.4
15,c1ccc2c(CSc3nnc(-c4ccncc4)o3)cccc2c1,-12.8
16,COc1ccc(/C=N/NC(=S)Nc2cc(S(=O)(=O)N3CCOCC3)ccc2N2CCOCC2)cc1O,-7.4
17,Cc1cccc(-n2c(-c3csc(C(C)C)c3)n[nH]c2=S)c1,-6.32
18,Cc1ccc(-c2noc(CN3CCN(Cc4ccccc4)CC3)n2)cc1,-34.3
19,CC(=O)N1CCc2cc(Br)cc(S(=O)(=O)NCc3ccc(Cl)cc3)c21,-58.6
20,C=CCNC(=O)c1ccccc1NC(=O)C1CCN(S(=O)(=O)c2ccc(SC)cc2)CC1,-70
21,COCCn1c(=O)c2c(nc3n2CCCN3CCc2ccc(OC)c(OC)c2)n(C)c1=O,0.432
22,Cc1cccc(N/N=C2/COC(C)(C)CC2=O)c1,5.86

row,SMILES,"hERG current change (%, negative = inhibition) at 10uM [%]"
1,CCN(CC)C(=O)CSc1ncnc2sc(C)c(C)c12,-23.9
2,CC1CC(C)CN(C(=O)COC(=O)CCCN2C(=O)c3cccc4cccc(c34)C2=O)C1 (centres unmarked),-20.2
3,NNC(=O)c1oc2ccccc2c1-n1cccc1,10.2
4,COc1cc([C@@H]2c3cc4c(cc3[C@@H](O[C@@H]3O[C@@H]5CO[C@@H](C)O[C@H]5[C@H](O)[C@H]3O)[C@H]3COC(=O)[C@H]23)OCO4)cc(OC)c1O,8.25
5,Cn1c(N)c(C(=O)COC(=O)/C=C/c2ccc(F)cc2)c(=O)n(C)c1=O,-51.8
6,COc1ccc(N(CC(=O)NCc2ccccc2OC)S(=O)(=O)c2ccccc2[N+](=O)[O-])c(OC)c1,3.17
7,N#Cc1ccccc1NC(=O)COC(=O)C1CCN(C(=O)c2ccc(Cl)cc2)CC1,-62.5
8,COc1ccccc1/C=C1\SC(=S)N(Nc2nc(C)cc(C)n2)C1=O,-0.159
9,CCCCOC(=O)c1ccc(NC(=S)NC(=O)c2c(Cl)cnn2CC)cc1,-4.98
10,O=C(c1ccccc1F)N1CCN(S(=O)(=O)c2ccc(Br)cc2)CC1,-36.6
11,Cn1c(=O)c2cc(S(=O)(=O)N3CCOCC3)ccc2n(C)c1=O,-10.1
12,COc1ccc(-c2noc(-c3cccc(Cl)c3)n2)cc1OC,14.1
13,O=[N+]([O-])c1cc(S(=O)(=O)Nc2cccc(Cl)c2)ccc1N=Nc1c(O)[nH]c2ccccc12,0.91
14,CCOc1ccc(C(=O)COC(=O)c2cc([N+](=O)[O-])ccc2N2CCOCC2)cc1,-19
15,COc1ccccc1N1CCN(C(=O)c2cc(-c3ccccc3O)on2)CC1,6.6
16,CCCCn1c(O)c(C(CC)=Nc2ccc(C(=O)O)cc2)c(=O)[nH]c1=O,20.6
17,Cc1ccc2c(c1)cc(CN(Cc1ccco1)C(=O)N1CCOCC1)c1nnnn12,-14.7
18,COc1cccc(C(=O)N(CN2CCCC2=O)c2cc(C)on2)c1,8.05
19,Cn1c(=O)c2c(nc(N3CCCCC3)n2CC(O)COc2ccccc2)n(C)c1=O (centres unmarked),-2.61
20,O=C(O)C1CC=CCC1C(=O)NCCCCc1ccccc1 (centres unmarked),27.4
